Test results: patent publication US12594350B2, “CD8-specific capture agents, compositions, and methods of using and making” (Regeneron Pharmaceuticals, Inc., priority 2016, dated 2026)

Tests used:
[1] = test system: His-tagged CD8 epitopes; assay: Assay to determine orientation of macrocycle binding to CD8 Epitopes1-2; parameters: species or system human; settings: polyglycine-substituted His-tagged CD8 epitopes at 2 μM
Procedure: Assay to determine orientation of macrocycle binding to CD8 Epitopes1-2. […] Wash Buffer without epitope was added as a control. […] Data are shown after subtraction of the no-epitope background.
For this experiment, the CD8 Epitope1 was re-synthesized with a His6 assay handle and polyglycine substitution of the sequences either N-terminal or C-terminal to the location of the click handle (R10) (FIG. 12A). The CD8 Epitope2 was similarly re-synthesized with a His6 assay handle and polyglycine substitution (N-terminal or C-terminal to K58) (FIG. 12B). Point ELISAs for the His-tagged CD8 epitopes were conducted against the immobilized macrocyclic peptide ligands. For PEG3-biotin-modified Cy(wplrf) (SEQ ID NO: 13), Cy(AKYRG) (SEQ ID NO: 8), Cy(rwfnv) (SEQ ID NO: 14), and Cy(ffrly) (SEQ ID NO: 17), maximum ELISA signals were obtained for binding to CD8 Epitope1N (dark bars, FIG. 12C) indicating preferential binding to the N-terminal portion of CD8 Epitope1. […] For PEG3-biotin-modified Cy(HGRGH) (SEQ ID NO: 21) and Cy(wsvnv) (SEQ ID NO: 34), maximum ELISA signals were obtained for binding to CD8 Epitope2C (light grey bars, FIG. 12D) indicating preferential binding to the C-terminal portion of CD8 Epitope2.

[2] = biological target: His-tagged CD8α human recombinant protein (Homo sapiens, UniProt P01732); assay: Point ELISA (serum selectivity assay); assay type: binding; parameters: purchased Origene TP760215; settings: 50 nM CD8α in 0%, 10%, 100% (v/v) human serum
Procedure: Point ELISA (Serum selectivity assay).
The selective targeting of biotin-PEG3-modified macrocyclic peptide ligands in a serum background was tested in an ELISA format. […] Other PCCs, including Cy(AKYRG) (SEQ ID NO: 8), CY (PWTHG) (SEQ ID NO: 25), and Cy(wsvnv) (SEQ ID NO: 34), can detect CD8 protein in 10% serum.

[3] = test system: trypsin protease; assay: Point ELISA (protease sensitivity assay); settings: trypsin 1 h at 37° C.; 50 nM CD8α

His-tagged CD8α human recombinant protein, sequence (P01732 22-235): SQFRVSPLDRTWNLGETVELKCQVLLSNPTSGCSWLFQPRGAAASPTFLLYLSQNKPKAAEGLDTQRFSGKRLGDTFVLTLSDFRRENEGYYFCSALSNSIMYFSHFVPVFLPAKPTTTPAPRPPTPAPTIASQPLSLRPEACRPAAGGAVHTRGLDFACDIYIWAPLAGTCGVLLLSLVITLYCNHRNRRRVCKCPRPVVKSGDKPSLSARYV

Structure (SMILES)	epitope portion giving maximum ELISA signal (preferential binding) [1]	human serum content in which CD8 protein can be detected [2] [% serum]	ELISA signal after trypsin protease treatment [3]	stability to trypsin digestion (in words) [3]
C[C@@H]1NC(=O)[C@@H](NC(=O)COCCOCCOCCNC(=O)CCCC[C@H]2SC[C@H]3NC(=O)N[C@H]32)Cc2cn(nn2)CCCC[C@@H](C(N)=O)NC(=O)CNC(=O)[C@H](CCCNC(=N)N)NC(=O)[C@H](Cc2ccc(O)cc2)NC(=O)[C@H](CCCCN)NC1=O [biotin-PEG3-Cy(AKYRG)] ({Biotinyl(3aR,4R,6aS)-AEEEA}-[Pra]AKYRG[Lys(N3)]-NH2; triazole 1-7)	CD8 Epitope1N	10	30 % of signal	–
CC(O)[C@@H]1NC(=O)[C@H](Cc2c[nH]c3ccccc23)NC(=O)[C@@H]2CCCN2C(=O)[C@@H](NC(=O)COCCOCCOCCNC(=O)CCCC[C@H]2SC[C@H]3NC(=O)N[C@H]32)Cc2cn(nn2)CCCC[C@@H](C(N)=O)NC(=O)CNC(=O)[C@H](Cc2c[nH]cn2)NC1=O (stereo partly drawn) [biotin-PEG3-Cy(PWTHG)] ({Biotinyl(3aR,4R,6aS)-AEEEA}-[Pra]PW[Thr(3ξ)]HG[Lys(N3)]-NH2; triazole 1-7)	CD8 Epitope2N	10	–	–
CC(C)C[C@H]1NC(=O)[C@@H](CCCNC(=N)N)NC(=O)[C@@H](Cc2ccccc2)NC(=O)[C@@H](Cc2ccccc2)NC(=O)[C@@H](NC(=O)COCCOCCOCCNC(=O)CCCC[C@@H]2SC[C@@H]3NC(=O)N[C@@H]32)Cc2cn(nn2)CCCC[C@@H](C(N)=O)NC(=O)[C@@H](Cc2ccc(O)cc2)NC1=O [biotin-PEG3-Cy(ffrly)] ({Biotin-AEEEA}-[Pra][dF][dF][dR][dL][dY][Lys(N3)]-NH2; triazole 1-7)	CD8 Epitope1N	–	–	nearly identical signals before and after digestion
CC(C)[C@H]1NC(=O)[C@@H](CC(N)=O)NC(=O)[C@@H](Cc2ccccc2)NC(=O)[C@@H](Cc2c[nH]c3ccccc23)NC(=O)[C@@H](CCCNC(=N)N)NC(=O)[C@@H](NC(=O)COCCOCCOCCNC(=O)CCCC[C@@H]2SC[C@@H]3NC(=O)N[C@@H]32)Cc2cn(nn2)CCCC[C@@H](C(N)=O)NC1=O [biotin-PEG3-Cy(rwfnv)] ({Biotin-AEEEA}-[Pra][dR][dW][dF][dN][dV][Lys(N3)]-NH2; triazole 1-7)	CD8 Epitope1N	–	80 % of signal	–
CC(C)C[C@H]1NC(=O)[C@@H](CO)NC(=O)[C@@H](NC(=O)COCCOCCOCCNC(=O)CCCC[C@H]2SC[C@H]3NC(=O)N[C@H]32)Cc2cn(nn2)CCCC[C@@H](C(N)=O)NC(=O)CNC(=O)[C@@H](Cc2ccccc2)NC(=O)[C@@H](CCCNC(=N)N)NC1=O [biotin-PEG3-Cy(slrfG)] ({Biotinyl(3aR,4R,6aS)-AEEEA}-[Pra][dS][dL][dR][dF]G[Lys(N3)]-NH2; triazole 1-7)	–	–	–	nearly identical signals before and after digestion
CC(C)C[C@H]1NC(=O)[C@H]2CCCN2C(=O)[C@@H](Cc2c[nH]c3ccccc23)NC(=O)[C@@H](NC(=O)COCCOCCOCCNC(=O)CCCC[C@@H]2SC[C@@H]3NC(=O)N[C@@H]32)Cc2cn(nn2)CCCC[C@@H](C(N)=O)NC(=O)[C@@H](Cc2ccccc2)NC(=O)[C@@H](CCCNC(=N)N)NC1=O [biotin-PEG3-Cy(wplrf)] ({Biotin-AEEEA}-[Pra][dW][dP][dL][dR][dF][Lys(N3)]-NH2; triazole 1-7)	CD8 Epitope1N	–	–	nearly identical signals before and after digestion
CC(C)[C@H]1NC(=O)[C@@H](CC(N)=O)NC(=O)[C@@H](C(C)C)NC(=O)[C@@H](CO)NC(=O)[C@@H](Cc2c[nH]c3ccccc23)NC(=O)[C@@H](NC(=O)COCCOCCOCCNC(=O)CCCC[C@H]2SC[C@H]3NC(=O)N[C@H]32)Cc2cn(nn2)CCCC[C@@H](C(N)=O)NC1=O [biotin-PEG3-Cy(wsvnv)] ({Biotinyl(3aR,4R,6aS)-AEEEA}-[Pra][dW][dS][dV][dN][dV][Lys(N3)]-NH2; triazole 1-7)	–	10	–	nearly identical signals before and after digestion

Bridge positions count the residues as written; N and C are the ends. Square brackets hold non-standard residues; d marks the D form. Triazole bridges read from a SMILES are 1,4-linked. Peptide text beside a SMILES is read from it. * marks the point of attachment. ξ: configuration not given here. Biotinyl(3aR,4R,6aS) = O=C1N[C@@H]2[C@@H](CS[C@@H]2CCCCC(=O)*)N1; Biotin = O=C1N[C@H]2[C@H](CS[C@H]2CCCCC(=O)*)N1; Lys(N3) = [N-]=[N+]=NCCCC[C@H](N)C(=O)O; Thr(3ξ) = CC(O)[C@H](N)C(=O)O; AEEEA = NCCOCCOCCOCC(=O)O; Pra = C#CC[C@H](N)C(=O)O
